{"source": "paper PMC4336329", "about": "(PLoS ONE, 2015)", "note": "Among all 310,000 compounds or so, about 14,000 (4.5%) showed an effect of 50% or more. Effects have a minus sign here. The list shows a part of the results.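 Also: peak tail current of the secondary pulse compared with the same well before compound.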", "data": [{"molecular_target": "human ether-à-go-go-related gene (hERG) potassium channel (human, UniProt Q12809)", "sequence (Q12809 whole entry, looked up)": "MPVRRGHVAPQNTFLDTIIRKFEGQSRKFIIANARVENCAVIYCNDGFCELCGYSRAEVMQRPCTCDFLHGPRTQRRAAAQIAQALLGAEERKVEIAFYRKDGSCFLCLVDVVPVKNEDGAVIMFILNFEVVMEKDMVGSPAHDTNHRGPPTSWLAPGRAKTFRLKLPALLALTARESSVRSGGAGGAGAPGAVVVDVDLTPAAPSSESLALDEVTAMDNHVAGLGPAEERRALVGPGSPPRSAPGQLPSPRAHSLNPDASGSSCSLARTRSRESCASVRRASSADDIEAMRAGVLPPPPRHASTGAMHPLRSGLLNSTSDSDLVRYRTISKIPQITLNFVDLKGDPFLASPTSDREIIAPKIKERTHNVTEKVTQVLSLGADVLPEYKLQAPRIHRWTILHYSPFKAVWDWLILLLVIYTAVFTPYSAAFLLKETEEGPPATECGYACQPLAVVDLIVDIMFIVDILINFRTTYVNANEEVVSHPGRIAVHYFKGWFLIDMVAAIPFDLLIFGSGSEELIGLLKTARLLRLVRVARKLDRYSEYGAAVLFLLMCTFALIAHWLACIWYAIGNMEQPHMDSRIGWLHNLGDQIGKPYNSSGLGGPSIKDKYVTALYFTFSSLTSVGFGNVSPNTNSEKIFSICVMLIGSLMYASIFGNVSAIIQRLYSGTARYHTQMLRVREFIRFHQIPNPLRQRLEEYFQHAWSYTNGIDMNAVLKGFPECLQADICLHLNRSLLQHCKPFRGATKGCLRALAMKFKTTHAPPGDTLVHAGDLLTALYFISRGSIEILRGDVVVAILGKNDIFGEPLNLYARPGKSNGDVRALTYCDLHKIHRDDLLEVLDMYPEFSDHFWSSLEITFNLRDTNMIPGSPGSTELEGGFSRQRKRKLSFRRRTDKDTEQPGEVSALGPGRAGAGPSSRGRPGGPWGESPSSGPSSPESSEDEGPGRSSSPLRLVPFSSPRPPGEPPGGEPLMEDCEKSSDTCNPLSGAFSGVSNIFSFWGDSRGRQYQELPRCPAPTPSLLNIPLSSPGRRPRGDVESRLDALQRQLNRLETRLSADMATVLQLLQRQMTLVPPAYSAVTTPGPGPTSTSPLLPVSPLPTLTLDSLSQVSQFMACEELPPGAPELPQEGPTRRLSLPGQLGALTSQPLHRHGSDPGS", "test": "primary screen, population patch clamp on CHO cells stably expressing hERG", "units": {"hERG current change (%, negative = inhibition) at 10uM": "%"}, "values": [{"smiles": "COC(=O)CSc1ccc(S(=O)(=O)N2CCC(C)CC2)cc1[N+](=O)[O-]", "hERG current change (%, negative = inhibition) at 10uM": -1.16}, {"smiles": "COc1cccc(/C=C2\\SC(=O)NC2=O)c1OCc1ccc(C(=O)O)cc1", "hERG current change (%, negative = inhibition) at 10uM": 9.69}, {"smiles": "CCCOC(=O)C1=C(C)NC(=O)NC1c1ccc(Br)s1", "note": "(stereo not drawn)", "hERG current change (%, negative = inhibition) at 10uM": 9.9}, {"smiles": "CCOc1ccc(N2CC(C(=O)NCCCc3ccccc3)CC2=O)cc1", "note": "(stereo not drawn)", "hERG current change (%, negative = inhibition) at 10uM": -51.2}, {"smiles": "CC(=O)Nc1ccc(C)c(NC(=S)Nc2ccc(F)cc2)c1", "hERG current change (%, negative = inhibition) at 10uM": 14.9}, {"smiles": "Cc1ccc(NS(=O)(=O)c2cccc(C(=O)NCC3CCCO3)c2)cc1", "note": "(stereo not drawn)", "hERG current change (%, negative = inhibition) at 10uM": -10}, {"smiles": "CC(=O)c1ccc(-c2nnc(CCC(=O)N(C)Cc3cnc4ccccn34)o2)s1", "hERG current change (%, negative = inhibition) at 10uM": 13.3}, {"smiles": "Cc1ccc(CNC(=O)Cn2cnc3c(NC(=O)OCc4ccccc4)ncnc32)o1", "hERG current change (%, negative = inhibition) at 10uM": -36.4}, {"smiles": "O=[N+]([O-])c1ccc2sc(SCc3nc4ccccn4c3Br)nc2c1", "hERG current change (%, negative = inhibition) at 10uM": 20.2}, {"smiles": "O=[N+]([O-])c1nn(-c2ccc3c(c2)OCCO3)n(O)c1=NCCCO", "hERG current change (%, negative = inhibition) at 10uM": -2.56}, {"smiles": "CN(C)c1ccc(NC(=O)CN2CCc3ccccc3C2)cc1", "hERG current change (%, negative = inhibition) at 10uM": -6.48}, {"smiles": "COc1ccc(C(C)C)cc1S(=O)(=O)Nc1ccc(Cl)cn1", "hERG current change (%, negative = inhibition) at 10uM": 10.7}, {"smiles": "Cc1ccc(CNCCCSc2nc(C)cc(C)n2)cc1.Cl", "hERG current change (%, negative = inhibition) at 10uM": -52.3}, {"smiles": "CC(C)c1ccc(NC2CCCN(C(=O)c3cnc4ccccn4c3=O)C2)cc1", "note": "(stereo not drawn)", "hERG current change (%, negative = inhibition) at 10uM": 12}, {"smiles": "Cc1nnc(NC(=O)c2nc(S(=O)(=O)Cc3ccccc3C)ncc2Cl)s1", "hERG current change (%, negative = inhibition) at 10uM": 20.3}, {"smiles": "Cl.O=C(NCCN1CCCC1)c1ccc(Cl)cc1", "hERG current change (%, negative = inhibition) at 10uM": -15.3}, {"smiles": "CN(C)C(=O)COc1ccc2c3c(c(=O)oc2c1)CCCC3", "hERG current change (%, negative = inhibition) at 10uM": 14.6}, {"smiles": "Cc1ccc(S(=O)(=O)Oc2ccc(/C=C3/C(=N)N4C(=NC3=O)SN=C4S(C)(=O)=O)cc2)cc1", "hERG current change (%, negative = inhibition) at 10uM": 9.53}, {"smiles": "CCN(CC)CCn1c2c(c(SCC(=O)Nc3ccc(F)c(F)c3)nc1=O)CCC2", "hERG current change (%, negative = inhibition) at 10uM": -70.5}, {"smiles": "COc1cc(/C=N/NC(=O)c2cccnc2)cc2c1OCO2", "hERG current change (%, negative = inhibition) at 10uM": 10.7}, {"smiles": "CCC(C)(C)NC(=O)CN(Cc1ccccc1Cl)C(=O)CCC(=O)Nc1cc(C)ccn1", "hERG current change (%, negative = inhibition) at 10uM": -4.7}, {"smiles": "O=c1c2ccccc2nnn1Cc1cccc2ccccc12", "hERG current change (%, negative = inhibition) at 10uM": -1.1}, {"smiles": "CCOc1ccc(CNn2nnnc2N)cc1", "hERG current change (%, negative = inhibition) at 10uM": -6.35}, {"smiles": "CC1(C)CC(=O)C(N=Nc2ccc3ncsc3c2)=C(O)C1", "hERG current change (%, negative = inhibition) at 10uM": -3.67}]}]}
